Drawing on PubChem BioAssay AID1963421 (Molecular Pharmacology Branch, DTP, NCI, 2024), this text covers IC50 and viability, T/C for four molecules.

Molecules are shown by their SMILES. Certain results were filed several times, with different values. This is not the full list of results. An entry can have further records. The values listed for one entry are repeats (runs, samples, wells, individuals or studies). Counts like (3×) count equal records among those shown.

The test concerns 519858-162-T-J1-PDC complex spheroid growth, % test/control. Put plainly: Anticancer human tumor 519858-162-T-J1-PDC patient-derived colon adenocarcinoma cell line growth inhibition [Asc]. The conditions noted are these: for viability, T/C: stronger effect = lower value. How it is done: Multicellular complex tumor spheroid response to apoptosis pathway targeting inhibitors Alrizomadlin, Pelcitoclax, and Dasminapant in combination with a variety of drugs and investigational agents in selected tumor cell lines
The MDM2 inhibitor alrizomadlin, the Bcl-2/Bcl-xL inhibitor pelcitoclax, and the IAPs inhibitor dasminapant were evaluated both individually and in combination with standard of care and investigational anticancer small molecules within a complex spheroid model of solid tumors. . Complex spheroids include a stromal component modeled by human endothelial cells (HUVEC) and fibroblasts modeled by human mesenchymal stem cells (MSCs). The concentration ranges selected for each drug and investigational agent were based upon clinically achievable concentrations if the clinical Cmax of the agent was known.
Compounds. The drugs and investigational agents: alrizomadlin (APG-115; NSC831270), pelcitoclax (APG-1252; NSC835773), dasminapant (APG-1387;NSC834197), TAK-243 (NSC785004), copanlisib (NSC809693), olaparib (NSC753686), talazoparib (NSC767125), cobimetinib (NSC 768068), eltanexor (KPT-8602, NSC 794443), abemaciclib (NSC 768073), sotorasib (NSC818433), adagrasib (NSC 831453), MRTX-1133 (NSC 836407), Iadademestat (ORY1001, NSC 806812), and RMC-4630 (NSC839698), were obtained from the NCI Developmental Therapeutics Program Chemical Repository. The FDA-approved anticancer drug set is available from the Developmental Therapeutics Program at https://dtp.cancer.gov/organization/dscb/obtaining/available plates.htm. […] The stock solutions were prepared in dimethyl sulfoxide (DMSO, Sigma-Aldrich, St. Louis, MO, cat. D2650) at 800-fold the tested concentration and stored at -70 degrees C prior to their use. All drugs and investigational agents were tested over a range starting from a high concentration at or near the clinical Cmax and decreasing in half-log increments. If the clinical Cmax for an agent had not been determined, the highest concentration tested was 10 microM.
The patient-derived cancer (PDC) cell lines include five colon adenocarcinomas: 186277-243-T-J2-PDC, 616215-338-R-J1-PDC, 439559-082-T-J2-PDC, 463943-066-T-J2-PDC, and 519858-162-T-J1-PDC; three pancreatic carcinomas: 323965-272-R-J2-PDC, 521955-158-R6-J3-PDC, and 521955-158-R2-J5-PDC; two uterine sarcomas: 327498-152-R-J2-PDC and 993429-296-R-J1-PDC; two rhabdomyosarcomas: 755483-174-R-J1-PDC and 772245-204-R-J1-PDC; two soft tissue sarcomas: 126254-015-R-J1-PDC and 494315-158-R-J1-PDC; two malignant fibrous histiocytomas: 317291-083-R-J1-PDC and 596521-263-R-J1-PDC; two breast carcinomas: 171881-019-R-J1-PDC and 885512-296-R-J2-PDC; and one ovarian carcinoma: 6556581-035-R-J-PDC were obtained from the NCI PDMR, (https://pdmr.cancer.gov). The established cell lines HSSY-2 synovial sarcoma (RRID:CVCL 8719), SYO-1 synovial sarcoma (RRID:CVCL_7146), MPNST malignant peripheral neural sheath tumor were obtained from the Sloan Kettering Institute. The following established cell lines were purchased from the American Type Culture Collection (ATCC, Manassas, VA), Sor the received from the NCI repository:, PANC-1 pancreatic carcinoma (CRL-1469, RRID:CVCL_0480), OVCAR-5 ovarian carcinoma (RRID:CVCL_1628), OVCAR-8 ovarian carcinoma (RRID:CVCL_1629), , MCF-7 breast carcinoma (CRL-12584, RRID:CVCL_0031), MDA-MB-231 breast carcinoma (CRL-12532, RRID:CVCL_0062), NCI-H1876 small cell lung carcinoma (CRL-5902, RRID:CVCL_1503), NCI-H510A small cell lung carcinoma (HTB-184, RRID:CVCL_1565), NCI-H1417 (CRL-5869, RRID:CVCL_1469), and NCI-H196 small cell lung carcinoma (CRL-5823, RRID:CVCL_1509). Dr. Peter Houghton (Greehey Children's Cancer Research Institute, University of Texas Health Science Center, San Antonio, TX) provided Rh-18 rhabdomyosarcoma (RRID:CVCL_1659). Pooled donor human umbilical vein endothelial cells (HUVEC, Lonza, cat. CC-2519) and human mesenchymal stem cells (hMSC, Lonza, cat. PT-2501) were purchased from Lonza (Walkersville, MD).
Cell Culture. […]
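Also: seven day drug exposure begun three days after spheroid seeding.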
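For viability, T/C in this document: 100% = DMSO vehicle wells and lower values mean less viable spheroid.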

In the case of `COc1c(OCCCN2CCOCC2)ccc2c3n(c(=NC(=O)c4cnc(N)nc4)nc12)CCN3`, the IC50 (compound alone) is 99.4 nM, > 1 µM, 153 nM.

With `CNC(C)C(=O)NC1CN(S(=O)(=O)c2cccc(S(=O)(=O)N3CCC4CCC(C(=O)NC(c5ccccc5)c5ccccc5)N4C(=O)C(NC(=O)C(C)NC)C3)c2)CCC2CCC(C(=O)NC(c3ccccc3)c3ccccc3)N2C1=O` (configuration not stated), the viability, T/C is 83.5, 95.4, 60.4, 100, 117, 85.2, 83.8, 92.5, 99.4% (compound alone 0.00316 µM); 88.5, 66.1, 86.4, 89.1, 90.4, 82.1, 88.8, 105, 93% (compound alone 0.01 µM); 85.9, 89.5, 86.7, 115, 93.5, 92.8, 87.7, 99.5, 111% (compound alone 0.0316 µM); 79, 87.9, 124, 111, 93.9, 97.9, 89.7, 102, 116% (compound alone 0.1 µM); 79.6, 93.4, 106, 121, 111, 85.4, 107, 96.8, 112% (compound alone 0.316 µM); 69.1, 85.1, 83, 96, 95.2, 88.4, 76.8, 87.6, 101% (compound alone 1 µM).

Regarding `CCN1C(C(=O)NC23CCC(C(=O)O)(CC2)CC3)C(c2cccc(Cl)c2F)C2(C(=O)Nc3cc(Cl)ccc32)C12CCCCC2` (configuration not stated), the viability, T/C is 99.5, 85.6, 85.7, 94.7, 94.8, 70.7, 86.2, 71.7, 98.2% (compound alone 0.00949 µM); 119, 93.2, 86.6, 85.7, 74.1, 97.8, 77.8, 92, 80.5% (compound alone 0.03 µM); 82.5, 78.6, 110, 74.7, 100, 99.2, 81.3, 76.8, 75.9% (compound alone 0.0949 µM); 105, 98.2, 97.4, 87.5, 108, 91.3, 85, 74.6, 96.2% (compound alone 0.3 µM); 103, 83.6, 110, 97.2, 63.5, 111 (2×), 64.1, 73.1% (compound alone 0.949 µM); 91.6, 93.4, 71.5, 97.7, 101, 78.5, 102, 65.8, 86.2% (compound alone 3 µM).

For `Cc1c(S(C)(=O)=O)c(-c2cc(F)cc(N3CCN(c4ccc(NS(=O)(=O)c5ccc(NC(CCN6CCC(C(=O)OCCCP(=O)(O)O)CC6)CSc6ccccc6)c(S(=O)(=O)C(F)(F)F)c5)cc4)CC3)c2)c(-c2ccc(Cl)cc2)n1C(C)C` (configuration not stated), the viability, T/C reads like this: (compound alone 0.1 µM) 109, 98.5, 84.8, 91.8, 77.7, 88.6, 59.7%; (compound alone 0.316 µM) 98.3, 79.8, 112, 94.8, 91.3, 103, 61.1%; (compound alone 3.16 µM) 72, 96.5, 99.8, 88.1, 80.3, 108, 61.8%; (compound alone 10 µM) 85, 82.8, 91.9, 81.2, 60.1, 80.3, 83.6%.
